Results on 36 compounds are retold here after the supplement of paper PMC9588766.

Where a name gives a salt, the structure may show the parent alone. Over roughly 1,900 compounds, “cell viability of compound + 1 nM pemigatinib relative to pemigatinib-only (DMSO) wells” has its median near 0.95; the lowest 2% begin near 0.22. Some of the results follow.

The test deals with PDC-DUC18828. Kind of test: cell viability of compound + 1 nM pemigatinib relative to pemigatinib-only (DMSO) wells (fraction); PDC-DUC18828 is a patient-derived cholangiocarcinoma cell line; higher = less growth inhibition. As to conditions: first compound 1 µM; pemigatinib concentration 1 nM; 72 h. As to the method:
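Selleck Bioactive library screen in the patient-derived FGFR2 fusion-positive ICC cell line PDC-DUC18828 (500 cells/well). Each compound was tested at 1 uM with 1 nM pemigatinib, in triplicate, for 72 h. Viability was read by CellTiter-Glo and normalised to plate DMSO controls. Value is the paper's averaged normalised viability.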
As for `COc1ccc2[nH]c([S@@+]([O-])Cc3ncc(C)c(OC)c3C)nc2c1` [Esomeprazole Magnesium] + CCN1C(=O)N(c2c(F)c(OC)cc(OC)c2F)Cc2cnc3[nH]c(CN4CCOCC4)cc3c21 [pemigatinib], the cell viability was found to be 0.98. As for `COc1ccc2[nH]c([S@@+]([O-])Cc3ncc(C)c(OC)c3C)nc2c1` [Esomeprazole Sodium] + CCN1C(=O)N(c2c(F)c(OC)cc(OC)c2F)Cc2cnc3[nH]c(CN4CCOCC4)cc3c21 [pemigatinib], the figure is 0.991. Then `Cc1cc(N2CCOCC2)cc2[nH]c(-c3c(NC[C@@H](O)c4cccc(Cl)c4)cc[nH]c3=O)nc12` + CCN1C(=O)N(c2c(F)c(OC)cc(OC)c2F)Cc2cnc3[nH]c(CN4CCOCC4)cc3c21 [pemigatinib], with 0.705. As for `Nc1nc2c(ncn2COCCO)c(=O)[nH]1` [Aciclovir] + CCN1C(=O)N(c2c(F)c(OC)cc(OC)c2F)Cc2cnc3[nH]c(CN4CCOCC4)cc3c21 [pemigatinib], the figure is 0.938. With `COc1ccc(C(=O)CC(=O)c2ccc(C(C)(C)C)cc2)cc1` [Avobenzone] + CCN1C(=O)N(c2c(F)c(OC)cc(OC)c2F)Cc2cnc3[nH]c(CN4CCOCC4)cc3c21 [pemigatinib], the cell viability worked out at 0.942. Then `CC1(C)CCC[C@]2(C)[C@H]3CC(=O)O[C@]3(C)CC[C@@H]12` [Sclareolide] + CCN1C(=O)N(c2c(F)c(OC)cc(OC)c2F)Cc2cnc3[nH]c(CN4CCOCC4)cc3c21 [pemigatinib], with 0.944. As for `COc1c(N2C[C@@H]3CCCN[C@@H]3C2)c(F)cc2c(=O)c(C(=O)O)cn(C3CC3)c12` [Moxifloxacin HCl] + CCN1C(=O)N(c2c(F)c(OC)cc(OC)c2F)Cc2cnc3[nH]c(CN4CCOCC4)cc3c21 [pemigatinib], the figure is 1.08; as for `CC(=O)OCC(=O)[C@@]1(O)[C@H](C)C[C@H]2[C@@H]3CCC4=CC(=O)C=C[C@]4(C)[C@@]3(F)[C@@H](O)C[C@@]21C` [Dexamethasone Acetate] + CCN1C(=O)N(c2c(F)c(OC)cc(OC)c2F)Cc2cnc3[nH]c(CN4CCOCC4)cc3c21 [pemigatinib], 0.786. As for `O=C(O)C(Cc1c[nH]c2ccccc12)N1C(=O)c2ccccc2C1=O` (stereo unspecified) + CCN1C(=O)N(c2c(F)c(OC)cc(OC)c2F)Cc2cnc3[nH]c(CN4CCOCC4)cc3c21 [pemigatinib], the figure is 0.87. Consider `CCOc1cc(CC(=O)N[C@@H](CC(C)C)c2ccccc2N2CCCCC2)ccc1C(=O)O` [Repaglinide] + CCN1C(=O)N(c2c(F)c(OC)cc(OC)c2F)Cc2cnc3[nH]c(CN4CCOCC4)cc3c21 [pemigatinib], for which the cell viability is 1.05. For the compound `CCOC(=O)C1=C(C)NC(C)=C(C(=O)OCC)C1c1ccccc1/C=C/C(=O)OC(C)(C)C` [Lacidipine] + CCN1C(=O)N(c2c(F)c(OC)cc(OC)c2F)Cc2cnc3[nH]c(CN4CCOCC4)cc3c21 [pemigatinib], the cell viability was 0.956.

For `O=S(=O)(c1ccccc1)N(CC(F)(F)F)c1ccc(C(O)(C(F)(F)F)C(F)(F)F)cc1` + CCN1C(=O)N(c2c(F)c(OC)cc(OC)c2F)Cc2cnc3[nH]c(CN4CCOCC4)cc3c21 [pemigatinib], the cell viability came out at 0.88. `CC#CC(=O)Nc1ccc2ncnc(Nc3cccc(Br)c3)c2c1` + CCN1C(=O)N(c2c(F)c(OC)cc(OC)c2F)Cc2cnc3[nH]c(CN4CCOCC4)cc3c21 [pemigatinib]: the cell viability is 0.563. Turning to `O=C(O)c1ccc(N2C(=O)/C(=C\c3ccc(-c4ccc([N+](=O)[O-])cc4)o3)C=C2c2ccccc2)cc1` + CCN1C(=O)N(c2c(F)c(OC)cc(OC)c2F)Cc2cnc3[nH]c(CN4CCOCC4)cc3c21 [pemigatinib], the cell viability turned out to be 0.965. On to `COc1cc(F)c(F)c(Nc2ccc(I)cc2F)c1NS(=O)(=O)C1(C[C@H](O)CO)CC1` [Refametinib (RDEA119, Bay 86-9766)] + CCN1C(=O)N(c2c(F)c(OC)cc(OC)c2F)Cc2cnc3[nH]c(CN4CCOCC4)cc3c21 [pemigatinib], for which the cell viability came to 0.82. With `C#C[C@]1(O)CC[C@H]2[C@@H]3CCc4cc(O)ccc4[C@H]3CC[C@@]21C` [Ethinyl Estradiol] + CCN1C(=O)N(c2c(F)c(OC)cc(OC)c2F)Cc2cnc3[nH]c(CN4CCOCC4)cc3c21 [pemigatinib], the cell viability amounted to 1.03.

As for `O=c1cc(-c2ccccc2)oc2cc(O)cc(O)c12` [Chrysin] + CCN1C(=O)N(c2c(F)c(OC)cc(OC)c2F)Cc2cnc3[nH]c(CN4CCOCC4)cc3c21 [pemigatinib], the cell viability came out at 1.02. `COc1cc2/c(=N/c3ccc(Br)cc3F)nc[nH]c2cc1OCC1CCN(C)CC1` [Vandetanib (ZD6474)] + CCN1C(=O)N(c2c(F)c(OC)cc(OC)c2F)Cc2cnc3[nH]c(CN4CCOCC4)cc3c21 [pemigatinib]: the cell viability turned out to be 0.917. In the case of `O=C(CCCCCN1C(=O)c2cccc3cccc(c23)C1=O)NO` [Scriptaid] + CCN1C(=O)N(c2c(F)c(OC)cc(OC)c2F)Cc2cnc3[nH]c(CN4CCOCC4)cc3c21 [pemigatinib], the cell viability was found to be 0.866. Then `C=C[C@@]1(C)CC(=O)[C@]2(O)[C@@]3(C)[C@@H](O)CCC(C)(C)[C@@H]3[C@H](O)[C@H](OC(C)=O)[C@@]2(C)O1` [Forskolin] + CCN1C(=O)N(c2c(F)c(OC)cc(OC)c2F)Cc2cnc3[nH]c(CN4CCOCC4)cc3c21 [pemigatinib], with 0.98. Take `CCN(CC)C(=S)SSC(=S)N(CC)CC` [Disulfiram] + CCN1C(=O)N(c2c(F)c(OC)cc(OC)c2F)Cc2cnc3[nH]c(CN4CCOCC4)cc3c21 [pemigatinib]: the cell viability was determined as 0.106. As for `Cc1cc(OCCCS(C)(=O)=O)cc(C)c1-c1cccc(COc2ccc3c(c2)OC[C@H]3CC(=O)O)c1` + CCN1C(=O)N(c2c(F)c(OC)cc(OC)c2F)Cc2cnc3[nH]c(CN4CCOCC4)cc3c21 [pemigatinib], the figure is 1; as for `NCCCCCNCC12CC3CC(CC(C3)C1)C2` [IEM 1754 dihydrobroMide] + CCN1C(=O)N(c2c(F)c(OC)cc(OC)c2F)Cc2cnc3[nH]c(CN4CCOCC4)cc3c21 [pemigatinib], 0.898; as for `CC1(C)O[C@@H]2C[C@H]3[C@@H]4CCC5=CC(=O)C=C[C@]5(C)[C@H]4[C@@H](O)C[C@]3(C)[C@]2(C(=O)CO)O1` [Desonide] + CCN1C(=O)N(c2c(F)c(OC)cc(OC)c2F)Cc2cnc3[nH]c(CN4CCOCC4)cc3c21 [pemigatinib], 0.848. Consider `O=C(O)c1ccc2c(c1)nc(Nc1cccc(Cl)c1)c1ccncc12` [CX-4945 (Silmitasertib)] + CCN1C(=O)N(c2c(F)c(OC)cc(OC)c2F)Cc2cnc3[nH]c(CN4CCOCC4)cc3c21 [pemigatinib], for which the cell viability came to 0.947. Turning to `O=C1NCCc2[nH]c(-c3ccncc3)cc21` + CCN1C(=O)N(c2c(F)c(OC)cc(OC)c2F)Cc2cnc3[nH]c(CN4CCOCC4)cc3c21 [pemigatinib], the cell viability turned out to be 0.829. Consider `Cc1ccc(NC(=O)c2cccc(N(C)C)c2)cc1NC(=O)c1ccc(O)cc1` + CCN1C(=O)N(c2c(F)c(OC)cc(OC)c2F)Cc2cnc3[nH]c(CN4CCOCC4)cc3c21 [pemigatinib], for which the cell viability was 1.04. As for `COc1ccc(S(=O)(=O)Nc2cccnc2Nc2ccc(O)cc2)cc1` + CCN1C(=O)N(c2c(F)c(OC)cc(OC)c2F)Cc2cnc3[nH]c(CN4CCOCC4)cc3c21 [pemigatinib], the figure is 0.423; as for `CCNC(=O)CCC/C=C\C[C@@H]1[C@@H](/C=C/[C@@H](O)CCc2ccccc2)[C@H](O)C[C@@H]1O` [Bimatoprost] + CCN1C(=O)N(c2c(F)c(OC)cc(OC)c2F)Cc2cnc3[nH]c(CN4CCOCC4)cc3c21 [pemigatinib], 1.01; as for `COC(=O)C1=C(C)NC(C)=C(C(=O)OC2CCCN(Cc3ccccc3)C2)C1c1cccc([N+](=O)[O-])c1` (stereo unspecified) [Benidipine HCl] + CCN1C(=O)N(c2c(F)c(OC)cc(OC)c2F)Cc2cnc3[nH]c(CN4CCOCC4)cc3c21 [pemigatinib], 0.953. Regarding `O=C(CCCCCCC(=O)Nc1ccccc1)NO` [Vorinostat (SAHA, MK0683)] + CCN1C(=O)N(c2c(F)c(OC)cc(OC)c2F)Cc2cnc3[nH]c(CN4CCOCC4)cc3c21 [pemigatinib], the cell viability came to 0.948. With `O=C(/C=C/c1ccc(O)c(O)c1)c1ccc(O)cc1O` [Butein] + CCN1C(=O)N(c2c(F)c(OC)cc(OC)c2F)Cc2cnc3[nH]c(CN4CCOCC4)cc3c21 [pemigatinib], the cell viability came to 0.921. As for `CC[C@H]1OC(=O)C[C@@H](O)[C@H](C)[C@@H](O[C@@H]2O[C@H](C)[C@@H](O[C@H]3C[C@@](C)(O)[C@@H](O)[C@H](C)O3)[C@H](N(C)C)[C@H]2O)[C@@H](CC=O)C[C@@H](C)C(=O)/C=C/C(C)=C/[C@@H]1CO[C@@H]1O[C@H](C)[C@@H](O)[C@@H](OC)[C@H]1OC` [Tylosin tartrate] + CCN1C(=O)N(c2c(F)c(OC)cc(OC)c2F)Cc2cnc3[nH]c(CN4CCOCC4)cc3c21 [pemigatinib], the figure is 0.933; as for `Cc1cc(NS(=O)(=O)c2ccc(N)cc2)no1` [Sulfamethoxazole] + CCN1C(=O)N(c2c(F)c(OC)cc(OC)c2F)Cc2cnc3[nH]c(CN4CCOCC4)cc3c21 [pemigatinib], 0.959; as for `COc1cc(N2CCC(N)CC2)ccc1Nc1ncc(Cl)c(-c2c[nH]c3ccccc23)n1` + CCN1C(=O)N(c2c(F)c(OC)cc(OC)c2F)Cc2cnc3[nH]c(CN4CCOCC4)cc3c21 [pemigatinib], 0.704. As for `CCOC(=O)n1ccn(C)c1=S` [Carbimazole] + CCN1C(=O)N(c2c(F)c(OC)cc(OC)c2F)Cc2cnc3[nH]c(CN4CCOCC4)cc3c21 [pemigatinib], the figure is 0.916.
